The source holds more than one record for some entries. The other results are left out here. An entry can have further records. Values that stand side by side repeat one measurement across runs, samples, wells, individuals or studies.
Tested on: 217524-143-R1-J4-PDC spheroids with HUVEC/MSC, viability
Experiment: Anticancer human tumor 217524-143-R1-J4-PDC patient-derived pancreatic carcinoma cell line growth inhibition [CLK]
Conditions: compound alone 0.0316 µM; stronger effect = lower value
From the text: A high-throughput screen of multi-cell type tumor spheroids was designed to identify active combinations of […] and targeted small molecules. Complex spheroids include a stromal component modeled by human endothelial cells (HUVEC) and fibroblasts modeled by human mesenchymal stem cells (MSCs). The concentration ranges selected for each drug and investigational agent were based upon clinically achievable concentrations if the clinical Cmax of the agent was known.
Compounds. The drugs and investigational agents: cirtuvivint (SM08502; NSC835563), CC-671 (NSC850746), vemurafenib (NSC761431), tapotoclax (NSC804041), sotorasib (NSC818433), adagrasib (NSC831453), MRTX-1133 (NSC836407), BAY2416964 (NSC825713), copanlisib (NSC816437), inavolisib (NSC800729), abemaciclib (NSC768073), osimertinib (NSC779217), entinostat (NSC756642), eltanexor (KPT-8602, NSC794443), venetoclax (NSC766270), ceralasertib (NSC777638), bortezomib (NSC756655), olaparib (NSC753686), talazoparib (NSC767125), alisertib (NSC759677), peposertib (NSC802822), gemcitabine (NSC613327), 5-fluorouracil (NSC19893), SN-38 (NSC673596), oxaliplatin (NSC266046), paclitaxel (NSC125973), and doxorubicin (NSC123127), were obtained from the National Cancer Institute (NCI) Developmental Therapeutics Program Chemical Repository. […] If the clinical Cmax for an agent had not been determined, the highest concentration tested was 10 microM. […]
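Note: spheroids exposed to agents for seven days before reading; 100% = DMSO vehicle control viability.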

CN1CCN(c2cc(C(=O)Nc3cc4cc(-c5cnn(C)c5)ccc4cn3)ccn2)CC1
viability, T/C: 65.4, 61.4, 78.2, 78.5, 71, 81.2, 76.5, 93.4, 90.9, 75, 77.5, 87.3%

Source: PubChem BioAssay AID2060624 (Molecular Pharmacology Branch, DTP, NCI, 2025)
